# Measurements as given in publication PMC9911399, “Two distinct binding modes provide the RNA-binding protein RbFox with extraordinary sequence specificity”.
# Where a chain is given by its changes, count along the chain named. The list shows a part of the results.
# T1: RBFOX1 RRM (Homo sapiens, UniProt Q9NWB1 109-208)
# T1 sequence: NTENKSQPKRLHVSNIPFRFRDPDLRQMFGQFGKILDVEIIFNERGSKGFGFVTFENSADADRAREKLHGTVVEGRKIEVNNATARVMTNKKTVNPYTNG
# B1: GACAGGU (DNA:RNA)
# RNA: GGGAGACCGGAAUUCAGAUUGUCCGACAGGUUUAAAUCCCGUCGUAGCCACCA
# DNA 1: CAATCTGAATTCCGGTCTCCC
# DNA 2: TGGTGGCTACGACGGGATT
# B2: GACCUCU (DNA:RNA)
# RNA: B1 RNA with A28C, G29U, G30C
# DNA 1: CAATCTGAATTCCGGTCTCCC
# DNA 2: TGGTGGCTACGACGGGATT
# B3: ACCCAUG (DNA:RNA)
# RNA: B1 RNA with G25A, A26C, A28C, G29A, G30U, U31G
# DNA 1: CAATCTGAATTCCGGTCTCCC
# DNA 2: TGGTGGCTACGACGGGATT
# B4: GGAUCAA (DNA:RNA)
# RNA: B1 RNA with A26G, C27A, A28U, G29C, G30A, U31A
# DNA 1: CAATCTGAATTCCGGTCTCCC
# DNA 2: TGGTGGCTACGACGGGATT
# B5: AUUGCUC (DNA:RNA)
# RNA: GGGAGACCGGAAUUCAGAUUGUCCAUUGCUCUUAAAUCCCGUCGUAGCCACCA
# DNA 1: CAATCTGAATTCCGGTCTCCC
# DNA 2: TGGTGGCTACGACGGGATT
# B6: AAAAGAU (DNA:RNA)
# RNA: B1 RNA with G25A, C27A, G30A
# DNA 1: CAATCTGAATTCCGGTCTCCC
# DNA 2: TGGTGGCTACGACGGGATT
# B7: AACAAAU (DNA:RNA)
# RNA: B1 RNA with G25A, G29A, G30A
# DNA 1: CAATCTGAATTCCGGTCTCCC
# DNA 2: TGGTGGCTACGACGGGATT
# B8: CCGGAAG (DNA:RNA)
# RNA: B5 RNA with A25C, U26C, U27G, C29A, U30A, C31G
# DNA 1: CAATCTGAATTCCGGTCTCCC
# DNA 2: TGGTGGCTACGACGGGATT
# B9: UCUGGUG (DNA:RNA)
# RNA: B5 RNA with A25U, U26C, C29G, C31G
# DNA 1: CAATCTGAATTCCGGTCTCCC
# DNA 2: TGGTGGCTACGACGGGATT
# B10: GGGCGUA (DNA:RNA)
# RNA: B1 RNA with A26G, C27G, A28C, G30U, U31A
# DNA 1: CAATCTGAATTCCGGTCTCCC
# DNA 2: TGGTGGCTACGACGGGATT
# B11: GGUCGAU (DNA:RNA)
# RNA: B1 RNA with A26G, C27U, A28C, G30A
# DNA 1: CAATCTGAATTCCGGTCTCCC
# DNA 2: TGGTGGCTACGACGGGATT
# B12: CGCGGGA (DNA:RNA)
# RNA: B1 RNA with G25C, A26G, A28G, U31A
# DNA 1: CAATCTGAATTCCGGTCTCCC
# DNA 2: TGGTGGCTACGACGGGATT
# B13: UUGAGAA (DNA:RNA)
# RNA: B1 RNA with G25U, A26U, C27G, G30A, U31A
# DNA 1: CAATCTGAATTCCGGTCTCCC
# DNA 2: TGGTGGCTACGACGGGATT
# B14: AGUUAAA (DNA:RNA)
# RNA: B5 RNA with U26G, G28U, C29A, U30A, C31A
# DNA 1: CAATCTGAATTCCGGTCTCCC
# DNA 2: TGGTGGCTACGACGGGATT
# B15: UUCUGCA (DNA:RNA)
# RNA: B1 RNA with G25U, A26U, A28U, G30C, U31A
# DNA 1: CAATCTGAATTCCGGTCTCCC
# DNA 2: TGGTGGCTACGACGGGATT
# B16: AUGGAAA (DNA:RNA)
# RNA: B5 RNA with U27G, C29A, U30A, C31A
# DNA 1: CAATCTGAATTCCGGTCTCCC
# DNA 2: TGGTGGCTACGACGGGATT
# B17: AAAUGGA (DNA:RNA)
# RNA: B1 RNA with G25A, C27A, A28U, U31A
# DNA 1: CAATCTGAATTCCGGTCTCCC
# DNA 2: TGGTGGCTACGACGGGATT
# B18: GCUAACU (DNA:RNA)
# RNA: B1 RNA with A26C, C27U, G29A, G30C
# DNA 1: CAATCTGAATTCCGGTCTCCC
# DNA 2: TGGTGGCTACGACGGGATT
# B19: UCCUCAA (DNA:RNA)
# RNA: B5 RNA with A25U, U26C, U27C, G28U, U30A, C31A
# DNA 1: CAATCTGAATTCCGGTCTCCC
# DNA 2: TGGTGGCTACGACGGGATT
# B20: AAUCUAU (DNA:RNA)
# RNA: B5 RNA with U26A, G28C, C29U, U30A, C31U
# DNA 1: CAATCTGAATTCCGGTCTCCC
# DNA 2: TGGTGGCTACGACGGGATT
# B21: CUGCUUA (DNA:RNA)
# RNA: B5 RNA with A25C, U27G, G28C, C29U, C31A
# DNA 1: CAATCTGAATTCCGGTCTCCC
# DNA 2: TGGTGGCTACGACGGGATT
# B22: GUCGUUU (DNA:RNA)
# RNA: B5 RNA with A25G, U27C, C29U, C31U
# DNA 1: CAATCTGAATTCCGGTCTCCC
# DNA 2: TGGTGGCTACGACGGGATT
# B23: UGAUGUC (DNA:RNA)
# RNA: B5 RNA with A25U, U26G, U27A, G28U, C29G
# DNA 1: CAATCTGAATTCCGGTCTCCC
# DNA 2: TGGTGGCTACGACGGGATT
# B24: GAAUAUG (DNA:RNA)
# RNA: B1 RNA with C27A, A28U, G29A, G30U, U31G
# DNA 1: CAATCTGAATTCCGGTCTCCC
# DNA 2: TGGTGGCTACGACGGGATT
# B25: AAGUCUA (DNA:RNA)
# RNA: B5 RNA with U26A, U27G, G28U, C31A
# DNA 1: CAATCTGAATTCCGGTCTCCC
# DNA 2: TGGTGGCTACGACGGGATT
# B26: GAAGUAG (DNA:RNA)
# RNA: B1 RNA with C27A, A28G, G29U, G30A, U31G
# DNA 1: CAATCTGAATTCCGGTCTCCC
# DNA 2: TGGTGGCTACGACGGGATT
# B27: GGGGGCC (DNA:RNA)
# RNA: B5 RNA with A25G, U26G, U27G, C29G, U30C
# DNA 1: CAATCTGAATTCCGGTCTCCC
# DNA 2: TGGTGGCTACGACGGGATT
# B28: GCAUCAC (DNA:RNA)
# RNA: B5 RNA with A25G, U26C, U27A, G28U, U30A
# DNA 1: CAATCTGAATTCCGGTCTCCC
# DNA 2: TGGTGGCTACGACGGGATT
# B29: CAUACCU (DNA:RNA)
# RNA: B1 RNA with G25C, C27U, G29C, G30C
# DNA 1: CAATCTGAATTCCGGTCTCCC
# DNA 2: TGGTGGCTACGACGGGATT
# B30: AUCUGUU (DNA:RNA)
# RNA: B5 RNA with U27C, G28U, C29G, C31U
# DNA 1: CAATCTGAATTCCGGTCTCCC
# DNA 2: TGGTGGCTACGACGGGATT
# B31: AGGAAGG (DNA:RNA)
# RNA: B1 RNA with G25A, A26G, C27G, G29A, U31G
# DNA 1: CAATCTGAATTCCGGTCTCCC
# DNA 2: TGGTGGCTACGACGGGATT
# Target: T1, RBFOX1 RRM
# Test: EMSA; HiTS-Eq, 1 nM pool, 10 min; buffer printed only for the single-RNA assays: 10 mM Tris pH 7.5, 150 mM NaCl, 3.4 mM EDTA, 0.001% NP-40, 30 C
# Conditions: tags: His6 N-terminal (pET28a); label: 5' 32P
# Procedure, shortened: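 Purified RbFox RRM (wild type or mutant) was equilibrated for 10 min in 50 µL with 1 nM of a 5′-radiolabelled pool of RNA with 7 randomized nucleotides, its flanks annealed to DNA oligonucleotides, across increasing protein concentrations. Free RNA was separated by 8% native PAGE, excised, reverse-transcribed, PCR-barcoded and sequenced on an Illumina HiSeq 2500. Relative association constants came from read-count changes of each variant against the control reaction, normalised to the cognate motif.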
row,Binder,binding signal
1,B1,0.013 KA relative to UGCAUGU
2,B2,0.00768 KA relative to UGCAUGU
3,B3,0.00196 KA relative to UGCAUGU
4,B4,0.00525 KA relative to UGCAUGU
5,B5,0.013 KA relative to UGCAUGU
6,B6,0.00221 KA relative to UGCAUGU
7,B7,0.00103 KA relative to UGCAUGU
8,B8,0.0111 KA relative to UGCAUGU
9,B9,0.0283 KA relative to UGCAUGU
10,B10,0.0139 KA relative to UGCAUGU
11,B11,0.00733 KA relative to UGCAUGU
12,B12,0.00656 KA relative to UGCAUGU
13,B13,0.0148 KA relative to UGCAUGU
14,B14,0.00213 KA relative to UGCAUGU
15,B15,0.016 KA relative to UGCAUGU
16,B16,0.00765 KA relative to UGCAUGU

row,Binder,binding signal
1,B17,0.00168 KA relative to UGCAUGU
2,B18,0.00934 KA relative to UGCAUGU
3,B19,0.00842 KA relative to UGCAUGU
4,B20,0.00173 KA relative to UGCAUGU
5,B21,0.0127 KA relative to UGCAUGU
6,B22,0.0204 KA relative to UGCAUGU
7,B23,0.0268 KA relative to UGCAUGU
8,B24,0.00979 KA relative to UGCAUGU
9,B25,0.00239 KA relative to UGCAUGU
10,B26,0.0103 KA relative to UGCAUGU
11,B27,0.0256 KA relative to UGCAUGU
12,B28,0.00897 KA relative to UGCAUGU
13,B29,0.000336 KA relative to UGCAUGU
14,B30,0.00751 KA relative to UGCAUGU
15,B31,0.0189 KA relative to UGCAUGU
